Measurements published in patent US10299477B2 (priority 2015, dated 2019).

Experiments:
[1] = system: Colletotrichum orbiculare; details: 250 ppm spray (2.5 ml/pot), preventive; 6-10 days after inoculation; control value class
Phytophthora infestans = type: in vivo; details: 250 ppm spray (2.5 ml/pot), preventive; 5-10 days after inoculation; control value class
Magnaporthe grisea = type: in vivo; details: 250 ppm spray, preventive; control value class

Row | Structure (SMILES) | Test H control value (anthracnose on cucumber) [1] | Test F control value (late blight on tomato) (Phytophthora infestans) | Test A control value (blast on rice) (Magnaporthe grisea)
1 | CCn1c(-c2c(F)cccc2F)c(-c2cc(OCC3CC3)ccc2Cl)ccc1=O [Compound 212] | L (L shows 50% or less of control values) | L (L shows 50% or less of control values) | H (H shows more than 50% of control values)
2 | COCOc1ccc(Cl)c(-c2ccc(=O)n(CC(F)F)c2-c2c(F)cccc2F)c1 [Compound 213] | H (H shows more than 50% of control values) | L (L shows 50% or less of control values) | H (H shows more than 50% of control values)
3 | CCOc1ccc(Cl)c(-c2ccc(=O)n(CC(F)F)c2-c2c(F)cccc2F)c1 [Compound 214] | H (H shows more than 50% of control values) | L (L shows 50% or less of control values) | H (H shows more than 50% of control values)
4 | CCn1c(-c2c(F)cncc2F)c(-c2cc(OC)cc(OC)c2)ccc1=O [Compound 215] | H (H shows more than 50% of control values) | L (L shows 50% or less of control values) | H (H shows more than 50% of control values)
5 | CCn1c(-c2c(F)cncc2F)c(-c2cc(OC)cc(OC)c2Br)ccc1=O [Compound 216] | H (H shows more than 50% of control values) | H (H shows more than 50% of control values) | H (H shows more than 50% of control values)
6 | CCn1c(-c2c(F)cccc2F)c(-c2cccc(OC(F)(F)F)c2)ccc1=O [Compound 217] | L (L shows 50% or less of control values) | L (L shows 50% or less of control values) | H (H shows more than 50% of control values)
7 | CCn1c(-c2c(F)cccc2F)c(-c2cccc(OC(F)(F)F)c2)cc(Cl)c1=O [Compound 218] | L (L shows 50% or less of control values) | L (L shows 50% or less of control values) | H (H shows more than 50% of control values)
8 | CCn1c(-c2c(F)cccc2F)c(-c2cccc(C)c2)ccc1=O [Compound 219] | L (L shows 50% or less of control values) | L (L shows 50% or less of control values) | H (H shows more than 50% of control values)
9 | CCn1c(-c2c(F)cccc2F)c(-c2cccc(C)c2)cc(Cl)c1=O [Compound 220] | L (L shows 50% or less of control values) | L (L shows 50% or less of control values) | H (H shows more than 50% of control values)
10 | CCn1c(-c2c(F)cccc2F)c(-c2cc(OCC3CC3)ccc2Cl)cc(Cl)c1=O [Compound 221] | H (H shows more than 50% of control values) | L (L shows 50% or less of control values) | H (H shows more than 50% of control values)
11 | COCOc1ccc(Cl)c(-c2cc(Cl)c(=O)n(CC(F)F)c2-c2c(F)cccc2F)c1 [Compound 222] | H (H shows more than 50% of control values) | L (L shows 50% or less of control values) | H (H shows more than 50% of control values)
12 | CCOc1ccc(Cl)c(-c2cc(Cl)c(=O)n(CC(F)F)c2-c2c(F)cccc2F)c1 [Compound 223] | H (H shows more than 50% of control values) | L (L shows 50% or less of control values) | H (H shows more than 50% of control values)
13 | CCn1c(-c2c(F)cncc2F)c(-c2cc(OC)cc(OC)c2Cl)ccc1=O [Compound 224] | H (H shows more than 50% of control values) | H (H shows more than 50% of control values) | H (H shows more than 50% of control values)
14 | CCN1C(=O)CCC(c2cc(OC)cc(OC)c2)=C1c1ccccc1F [Compound 225] | L (L shows 50% or less of control values) | L (L shows 50% or less of control values) | H (H shows more than 50% of control values)
15 | COc1cc(OC)cc(C2=C(c3ccccc3F)N(C)C(=O)CC2)c1 [Compound 226] | H (H shows more than 50% of control values) | H (H shows more than 50% of control values) | H (H shows more than 50% of control values)
16 | CCn1c(-c2ccccc2F)c(-c2cc(OC)cc(OC)c2)ccc1=O [Compound 230] | H (H shows more than 50% of control values) | H (H shows more than 50% of control values) | H (H shows more than 50% of control values)

Row | Structure (SMILES) | Test H control value (anthracnose on cucumber) [1] | Test F control value (late blight on tomato) (Phytophthora infestans) | Test A control value (blast on rice) (Magnaporthe grisea)
17 | CCn1c(-c2ccccc2F)c(-c2cc(OC)cc(OC)c2Br)ccc1=O [Compound 231] | H (H shows more than 50% of control values) | H (H shows more than 50% of control values) | H (H shows more than 50% of control values)
18 | CCn1c(-c2ccccc2F)c(-c2cc(OC)cc(OC)c2Cl)ccc1=O [Compound 232] | H (H shows more than 50% of control values) | L (L shows 50% or less of control values) | H (H shows more than 50% of control values)
19 | COc1cc(OC)c(Cl)c(-c2ccc(=O)n(C)c2-c2ccccc2F)c1Cl [Compound 233] | L (L shows 50% or less of control values) | H (H shows more than 50% of control values) | H (H shows more than 50% of control values)
20 | CCn1c(-c2c(F)cccc2F)c(-c2cc(O)ccc2Cl)ccc1=O [Compound 234, 5-(2-chloro-5-hydroxyphenyl)-6-(2,6-difluorophenyl)-1-ethylpyridine-2(1H)-one] | H (H shows more than 50% of control values) | L (L shows 50% or less of control values) | H (H shows more than 50% of control values)
21 | Cn1c(-c2c(F)cccc2F)c(-c2cc(O)ccc2Cl)ccc1=O [Compound 235] | L (L shows 50% or less of control values) | L (L shows 50% or less of control values) | H (H shows more than 50% of control values)
22 | Cn1c(-c2c(F)cccc2F)c(-c2cc(OCC#N)ccc2Cl)ccc1=O [Compound 236] | H (H shows more than 50% of control values) | L (L shows 50% or less of control values) | H (H shows more than 50% of control values)
23 | CCOc1ccc(Cl)c(-c2ccc(=O)n(C)c2-c2c(F)cccc2F)c1 [Compound 237] | H (H shows more than 50% of control values) | L (L shows 50% or less of control values) | H (H shows more than 50% of control values)
24 | Cn1c(-c2c(F)cccc2F)c(-c2cc(OCC3CC3)ccc2Cl)ccc1=O [Compound 238] | H (H shows more than 50% of control values) | L (L shows 50% or less of control values) | H (H shows more than 50% of control values)
25 | COCOc1ccc(Cl)c(-c2ccc(=O)n(C)c2-c2c(F)cccc2F)c1 [Compound 239] | H (H shows more than 50% of control values) | H (H shows more than 50% of control values) | H (H shows more than 50% of control values)
26 | COCCOc1ccc(Cl)c(-c2ccc(=O)n(C)c2-c2c(F)cccc2F)c1 [Compound 240] | H (H shows more than 50% of control values) | L (L shows 50% or less of control values) | H (H shows more than 50% of control values)
27 | CCCOc1ccc(Cl)c(-c2ccc(=O)n(C)c2-c2c(F)cccc2F)c1 [Compound 241] | H (H shows more than 50% of control values) | L (L shows 50% or less of control values) | H (H shows more than 50% of control values)
28 | CCCOc1ccc(Cl)c(-c2ccc(=O)n(CC)c2-c2c(F)cccc2F)c1 [Compound 242] | H (H shows more than 50% of control values) | L (L shows 50% or less of control values) | H (H shows more than 50% of control values)
29 | C#CCOc1ccc(Cl)c(-c2ccc(=O)n(C)c2-c2c(F)cccc2F)c1 [Compound 243] | H (H shows more than 50% of control values) | L (L shows 50% or less of control values) | H (H shows more than 50% of control values)
30 | C#CCOc1ccc(Cl)c(-c2ccc(=O)n(CC)c2-c2c(F)cccc2F)c1 [Compound 244] | H (H shows more than 50% of control values) | L (L shows 50% or less of control values) | H (H shows more than 50% of control values)
31 | CCn1c(-c2c(F)cccc2F)c(-c2cc(OCOCC[Si](C)(C)C)ccc2Cl)ccc1=O [Compound 245] | L (L shows 50% or less of control values) | L (L shows 50% or less of control values) | L (L shows 50% or less of control values)
